# From PubChem BioAssay AID624296 (National Center for Advancing Translational Sciences (NCATS), 2012)
# About 9,900 (2.8%) of roughly 350,000 compounds were called active. The inconclusive results got no clear call from the source; some entries with a clear call stand among them for comparison. Calls come from the whole dose curve; as a rule, active = well fitted activation curve with a large enough effect; inconclusive = small, poorly fitted or top-dose-only effect; inactive = no such curve, though single readings can be large or run the other way. No potency is given beside an inconclusive call; the fits are too rough.
# Test: A quantitative high throughput screen for small molecules that induce DNA re-replication in MCF 10a normal breast cells. For activity, positive = re-replication: % of control where 0% means no effect. Note: nearly all actives have a fitted effect of over 50% in size.
# Conditions: MCF 10A DNA re-replication, Hoechst nuclear intensity, 48 h; activity, positive = re-replication: at 46.1 µM (top of the series)
# Potency is the fitted concentration of half-maximal effect; tags give direction and shape of the fitted curve.
Compound,Potency,"activity, positive = re-replication"
Cn1c(CCC(=O)OCC(=O)NCc2ccc3c(c2)OCO3)nc(=O)c2ccccc21,"inconclusive [activator, single point]",–
CC(C)N(C(C)C)S(=O)(=O)c1ccc(NC(=O)c2cnccn2)cc1,–,inactive: -0.129%
COc1ccc(CCc2cc(OC)c(OC)c(OC)c2)cc1,active: 1.84 µM,–
COc1cccc(CN(C)CC(O)COC(c2ccccc2)c2ccccc2C)c1 (stereo not given),"inconclusive [activator, single point]",–
O=C(/C=C\c1ccco1)Nc1nc(-c2ccc3ccccc3c2)cs1,"inconclusive [activator, partial curve]",–
CC(C)(C)c1nnc2sc(SCC(=O)c3cccs3)nn2c1=O,"inconclusive [activator, single point]",–
Cc1cc(C)c(N2C(=O)CCCC2=O)c(Cl)c1,"inconclusive [activator, single point]",–
O=c1[nH]c(Nc2nc3ccccc3o2)nc2c1CCCC2,–,inactive: -30.5%
O=C(Cc1cccc(NC(=O)C2CCCN(C(=O)C3CCC3)C2)c1)Nc1cccc(C(=O)N2CCCC2)c1 (stereo not given),–,inactive: 20.9%
CC(=O)Nc1ccccc1-c1nc2ccc(C(=O)N3CCN(c4cccc(C)c4)C(C)C3)cc2[nH]c1=O (stereo not given),"inconclusive [activator, partial curve, poor fit]",–
O=[N+]([O-])c1cncc([N+](=O)[O-])c1Nc1cccc(O)c1,–,inactive: 29%
Cc1cccc2sc(N(CCN(C)C)C(=O)C3CCN(S(=O)(=O)c4cccs4)CC3)nc12,–,inactive: 9.02%
COC(=O)c1c(-c2ccccc2)csc1NC1=NS(=O)(=O)c2ccccc21,"inconclusive [activator, partial curve, poor fit]",–
COc1ccccc1N=Nc1ccc(N)c(C)c1,–,inactive: -3.56%
COCCCN=C1NN=C(c2cc(C)n(-c3ccccc3F)c2C)CS1,"inconclusive [activator, single point]",–
COc1ccc(CC(=O)Oc2ccc(F)cc2)cc1,active: 0.651 µM,–
O=C(COC(=O)c1ccccc1O)Nc1ccc(OC(F)F)cc1,–,inactive: -1.92%
COc1ccc(C=O)cc1COc1c(F)c(F)cc(F)c1F,"inconclusive [activator, single point]",–
CCCCn1c(SCC(=O)Nc2ccc3c(c2)CCC3)nc2ccccc2c1=O,"inconclusive [activator, partial curve, poor fit]",–
NC(=O)C1CCN(C(=O)CC2(CC(=O)O)CCCCC2)CC1,"inconclusive [activator, partial curve, poor fit]",–
